{
  "source": "the supplement of paper PMC10338343",
  "note": "± gives the standard deviation. Only a part is listed here, and it is no random draw.",
  "data": [
    {"test_system": "MIWI (PIWIL1) piRISC loaded with L1MC piRNA (30 nt)", "assay": "pre-steady-state target cleavage rate (min^-1); MIWI and MILI are mouse PIWI proteins and EfPiwi is from a freshwater sponge; tags in brackets are library labels; higher = faster piRNA-guided slicing of the target", "settings": "guide: L1MC piRNA 5'p-UAACUAAAUACUAUGCAAGCUGUAGGUCCU; auxiliary factor: 500 nM mouse GTSF1", "outline": "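Cleave-'n-Seq: 1 nM active affinity-purified piRISC with one synthetic guide and 0.1 nM transcribed, DNA-blocked target RNA library were mixed, with or without 500 nM GTSF1 partner protein, in HEPES–potassium acetate buffer at 33 °C for 0–8 or 0–960 min. Uncleaved targets were sequenced and normalised to depth and to weakly complementary targets, three trials were pooled, and k3 was capped at 0.0001 min^-1. The pre-steady-state cleavage rate was fitted […].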", "values": [
      {"sequence": "UCCUGGAUGAGCUUGCAUAGUAUUUUGAUA", "pre-steady-state target cleavage rate": "0.258 ± 0.05"},
      {"sequence": "UCCACCUACAGCUUGAAUAGUAUUUAGUUA", "pre-steady-state target cleavage rate": "1.01 ± 0.035"},
      {"sequence": "UCCUGGUACAGCUUGCAUUGUAUUUUGUUA", "pre-steady-state target cleavage rate": "0.258 ± 0.049"},
      {"sequence": "UCGACCUACAGCUUGCUAAGUAUUUAGUUA", "pre-steady-state target cleavage rate": "0.307 ± 0.027"},
      {"sequence": "UCCUGGAACUAGCUUGCAUAGUAUUUAGUUA", "pre-steady-state target cleavage rate": "0.472 ± 0.044"},
      {"sequence": "UCCACCUGCAGCUUGCAUAGUAUUUAGUUA", "pre-steady-state target cleavage rate": "1.15 ± 0.13"},
      {"sequence": "UCCACCUACAGCUUGCAUAGUAUUUAGUGUA", "pre-steady-state target cleavage rate": "0.305 ± 0.04"},
      {"sequence": "AGGACCUACAGCUUGCAUAGUAUUUUGAUA", "pre-steady-state target cleavage rate": "0.266 ± 0.033"},
      {"sequence": "UCCACCUACAGCAUGGAUAGUAUUUAGUUA", "pre-steady-state target cleavage rate": "1.34 ± 0.062"},
      {"sequence": "UGGACCUACUGCUUGCAUAGUAUUUAGUAA", "pre-steady-state target cleavage rate": "0.708 ± 0.039"},
      {"sequence": "UCGAGCUACAGCUUGCAUUGUAUUUAGUUA", "pre-steady-state target cleavage rate": "0.903 ± 0.029"},
      {"sequence": "UCGACCUACAGCUUGCAUAGUAUUUAGUGUA", "pre-steady-state target cleavage rate": "0.682 ± 0.047"},
      {"sequence": "UCCUGCUUGUGCUUGCAUAGUAUUUAGUUA", "pre-steady-state target cleavage rate": "0.417 ± 0.034"},
      {"sequence": "UCCUGGAUGAGCUUCGCAUAGUAUUUAGUUA", "pre-steady-state target cleavage rate": "0.495 ± 0.047"},
      {"sequence": "UCCUGGUACAGCUUGCAUAGUAUUAAGUAA", "pre-steady-state target cleavage rate": "0.284 ± 0.059"},
      {"sequence": "AGGACCUACAGCUUGCUUAGUAUUUACUUA", "pre-steady-state target cleavage rate": "0.552 ± 0.046"},
      {"sequence": "UCCUGGAUGUCGAACGUAUCUAUUAAGUUA", "pre-steady-state target cleavage rate": "< 0.0001"},
      {"sequence": "UCCUGGUACAGCUUGCAUAGUAUUUUGAAA", "pre-steady-state target cleavage rate": "0.313 ± 0.069"},
      {"sequence": "UCGACCUACAGCUAGCAUAGUAUUUUGUUA", "pre-steady-state target cleavage rate": "0.967 ± 0.049"},
      {"sequence": "UCGACCUACAGCUAGCUUAGUAUUUAGUUA", "pre-steady-state target cleavage rate": "1.04 ± 0.062"},
      {"sequence": "AGGACCUACAGCUUGCAUAGUAUUUUCAAA [g6:g30:cont:t1A]", "pre-steady-state target cleavage rate": "0.39 ± 0.05"},
      {"sequence": "UCCACCUACAGCUUGCUUAGUAAUUAGUUA", "pre-steady-state target cleavage rate": "0.605 ± 0.029"},
      {"sequence": "UCCUCGUACUGCUUGCAUAGUAUUUAGUUA", "pre-steady-state target cleavage rate": "1.18 ± 0.057"},
      {"sequence": "UCCUGGUACACCUUGCUUAGUAUUUAGUUA", "pre-steady-state target cleavage rate": "0.295 ± 0.056"}
    ]}
  ]
}
